# Measurements from the RNAGym collection of RNA variant scans (doi:10.1073/pnas.2313332121).
# Variants at the floor of the assay are shown more often than the library holds them.
# B1: TPR 5TU (parent)
# chain: GGAUCUUCUCGAUCUAACAAAAAAGACAAAUCUGCCACAAAGCUUGAGAGCAUCUUCGGAUGCAGAGGCGGCAGCCUUCGGUGGCGCGAUAGCGCCAACGUUCUCAACUAUGACACGCAAAACGCGUGCUCCGUUGAAUGGAGUUUAUCAUG
# Variants of: B1
# Test: polymerase ribozyme fitness, log enrichment relative to wild type (log ratio); higher = more active; in vitro selection for triplet polymerase activity
# Procedure, shortened: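 Input and output libraries were sequenced on Illumina after a single in vitro selection round, run in triplicate on PCR-built, transcribed mutant libraries of each subunit of a heterodimeric triplet polymerase ribozyme. Selection annealed libraries to a biotinylated primer, the partner subunit and triplets, incubated them frozen at −7 °C, then gel-excised extended constructs for streptavidin-bead capture and RT-PCR. Genotypes with ≥10 input reads and ≥1 read per output were kept. Fitness is the logarithm, taken in base 2, of genotype enrichment divided by wild-type enrichment, using inverse-variance-weighted replicate averages.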
row,Variant,polymerase ribozyme fitness (log ratio)
1,GGAUCUUCUCGAUCUAACAAAAAAGACAAAUCUGCCACAACGCUUGAGAUCAUCUUCGGAUGCAGAGGCGGCAGCCUUCGGUGGCGCGAUAGCGUCAGCGAUCUCAACUAUGACACGAAAAACGCGUGCUCCGUUGAAUGGUGUUUAUCAUG [A41C G50U C95U A98G U101A C118A A142U],≤ -4.2
2,GGAUCUUCUCGAUCUAACAAAAAAGACAAAUCUGCCACAACUCUUGAGAGCAUCUUCGGAUGCAGAGGCGGCAGCCUUGCGUGGCGCGAUAGCGCCAACGUUCUCAACUAUGACAUGCAAAACGCGUGCUCCGUUGAAUGGAGUUUAUCAUG [A41C G42U C79G G80C C116U],≤ -4.2
3,GGAUCUUCUCGAUCUAACAAAAAAGACAAAUCUGCCACAACGCUUGAGAGCAUCUUCGGAUGCAGAGGCGGCAGCCUUCGGUGGCGCGAUAGCGCGAACGUUCUUCACUAUGACACGCAAAACGCGUGCUCCGUUGAAUUGAGUUUAUCAUG [A41C C96G C105U A106C G140U],≤ -4.2
4,GGAUCUUCUCGAUCUAACAAAAAAGACAAAUCUGCCACAACGCUUGAGAGCAUCUUCGGAUGCAGAGGCGGCAGCCUUCGGUGGCGCGAUAGAGCCAACGUUCUCAACUUUGACACGCAAAACGCGUGCUCCGUUGAAUGGAGUUUAUCAUG [A41C C93A A110U],≤ -4.2
5,GGAUCUUCUCGAUCUAACAAAAAAGACAAAUCUGCCACAACGCUUGACAGCAUCUACGGAUGCAGAGGCGGCAGCCUUCGGUGGCGCGCUAGCGCCAACGUUUUCAACUAUGACACGCAAAACGCGUGCUCCGUUGAAUGGAGUUUAUCAUG [A41C G48C U56A A89C C103U],-2.34
6,GGAUCUUCUCGAUCUAACAAAAAAGACAAAUCUGCCACAACGCUUGAGAGCAUCUUCGGAUGCAGAGGCGGCAGCCUUCGGUGGUGCGAUAGCGCAAACGCUCUCAACUAUGACACGCAAAACGCAUGCUCCGUUGAAUGGAGUUUAUCAUU [A41C C85U C96A U101C G126A G152U],≤ -4.2
7,GGAUCUUCUCGAUCUAACAAAAAAGACAAAUCUGCCACAACGCUUGAGAGCAUCUUCGGAUGCAGAGGCGGCAGCCUUCGGUGGUGCGACAGCGCCAACGUUCUCAACUAUGACACGCAAAACGCGUGCUCCGUUGAAUAGAGUUUGUCAUG [A41C C85U U90C G140A A147G],≤ -4.2
8,GGAUCUUCUCGAUCUAACAAAAAAGACAAAUCUGCCACAACGCUUGAGAGCAUCUUCGGAUGCAGAGGCGGUAGCCUUCGGUGGCGCGAUAGCGCCAACGUUCUCAACUAUGACACGCAAAACGCGUGCUCCGUUGAGUGGAGUUUAUCAUG [A41C C72U A138G],≤ -4.2
9,GGAUCUUCUCGAUCUAACAAAAAAGACAAAUCUGCCACAACGCUUGACAGCAUCUUCGGAUGCAGAGGCGGCAGUCUUCGGUGGCGCGAUAGCGCCAACGUUCUCAACUAUGACACGCAAAACGCGUGCUCCGUUGAAUGGAGUUUAUCAUG [A41C G48C C75U],≤ -4.2
10,GGAUCUUCUCGAUCUAACAAAAAAGACAAAUCUGCCACAACGCUUGAGAGCAUCUUCGGAUGCAGAGGCGGCAGCCUUCGGUGACGCGAUAGCGCCAACGUUCUCAACUAUGACACGCAAAACGCGUGCUCCGUUGAAUGGAGUUUAUCAUG [A41C G84A],-0.601
11,GGAUCUUCUCGAUCUAACAAAAAAGACAAAUCUGCCACAACGCUUGAGAGCAUCUUCGGAUGCAGAGGCGGCAGCCUUCGGUGGCGCGAUAUCGCCAACGUUCUCAACUAUGACACGCAAAACGCGUGCUCCGUUGAAUGGAGUUUAUCAUG [A41C G92U],-1.08
12,GGAUCUUCUCGAUCUAACAAAAAAGACAAAUCUGCCACAACGCUUGACAGCAUCUUGGGAUGCAGAGGCGGCAGCCUUCGGUGGCGCGAUAGCGCCAACGGUCUCAACUAUGACACGCAAAACGCGUGCUCCGUUGAAUGGAGUUUAUCAUG [A41C G48C C57G U101G],≤ -4.2
13,GGAUCUUCUCGAUCUAACAAAAAAGACAAAUCUGCCACAACCCUUGAGAGCAUCUUCGGAUACAGACGCGGCAGCCUUCGGUGGCGCGAUAGCGCCAACGUUCUCAACUAUGACACGCAAAACGCGUGCUCCGUUGAAUGGAGUUUAUCAUG [A41C G42C G62A G67C],≤ -4.2
14,GGAUCUUCUCGAUCUAACAAAAAAGACAAAUCUGCCACAACGCUUGAGAGCAUCUUCGGAUGCAGAGGCGGCAGCCUUCGGUGGCGCGAUAGCGCAAACGUUCUCAACUAUGACACGCAAAACGCGUGCUCCGUUGAAUGGAGUUAAUCAUG [A41C C96A U146A],-0.97
15,GGAUCUUCUCGAUCUAACAAAAAAGACAAAUCUGCCACAACGCUUGAGAUCAUCUUCGGAUGCAGAGGCGGCAGCCUUCGGUGGAGCGAUAGCGUCAACGUUCUCAACUAUGACACGCAAAACGCGUGCUCCGUUUAAUGGAGUUUACCAUG [A41C G50U C85A C95U G136U U148C],≤ -4.2
16,GGAUCUUCUCGAUCUAACAAAAAAGACAAAUCUGCCACAACGCUUGAGAGCAUCUUCGGAUCCAGAGGCGGCAGCCUUCGGUCGCGCGAUAGCUCCAACGUUCUCAACUAUGACAUGCAUAACGCGUGCUCCGUUGAAUGGAGUUAAUCAUG [A41C G62C G83C G94U C116U A120U U146A],≤ -4.2
17,GGAUCUUCUCGAUCUAACAAAAAAGACAAAUCUGCCACAACGCUUGACAGCAUCUUCGGAUGCAGAGGCGGCAGCCUUCCGUGGCGCGAUAGCGCCAACGUUCUCAACUAUGACAAGCAAAACGCGUGCUCCAUUGAUUGGAGUCUAUCAUG [A41C G48C G80C C116A G133A A138U U145C],≤ -4.2
18,GGAUCUUCUCGAUCUAACAAAAAAGACAAAUCUGCCACAACGCUUGAGAGCAUCUUCGGAUGCAGAGGCGGCAGCCUUCGGUGGCGCGAUAGCGCCAACGUUCUCAACUAUGACACGCAAAACGCGUGCUCAGUUGAAUGGAGUUUAUCAUG [A41C C132A],-2.55
19,GGAUCUUCUCGAUCUAACAAAAAAGACAAAUCUGCCACAACGCUUGAGAGCAUCUUCGGAUGCAGAGGCGUCAGCCUUCGGUGGCGUGAUAGCGCCAACGUUCUCAACUAUGACACGCAAAACGCGUGCUCCGUUGAAUGGAGUUUAUCAUG [A41C G71U C87U],≤ -4.2
